Data on 6 substances can be found in paper PMC8913300, “Two distinct classes of cochaperones compete for the EEVD motif in heat shock protein 70 to tune its chaperone activities” (The Journal of Biological Chemistry, 2022).

The chains behind the UniProt entries cited, without tags or fusion partners.
UniProt Q9UDY4: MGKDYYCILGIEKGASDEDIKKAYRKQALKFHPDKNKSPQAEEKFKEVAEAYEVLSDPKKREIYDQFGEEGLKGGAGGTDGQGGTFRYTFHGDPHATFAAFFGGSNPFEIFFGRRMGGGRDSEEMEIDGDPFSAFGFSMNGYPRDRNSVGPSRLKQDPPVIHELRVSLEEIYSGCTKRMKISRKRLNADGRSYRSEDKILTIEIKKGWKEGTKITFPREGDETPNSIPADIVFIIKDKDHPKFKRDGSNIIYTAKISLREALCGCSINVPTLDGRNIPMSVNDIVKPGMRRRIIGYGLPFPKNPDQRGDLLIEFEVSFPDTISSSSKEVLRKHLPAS

These are yes or no findings as the source states them, for the method shown. Some binding calls cover weakened binding; strength is not graded here.

For assay [1], the target named is DnaJB4 (human) (UniProt Q9UDY4). Put plainly: fluorescence polarisation; competition; 100 μM unlabeled peptide, 5 μM DnaJB4, 20 nM Hsp72 tracer in JDP binding buffer; 30 min at room temperature; tracer displacement relative to DMSO control; both purified.
Assay [2] has the same target. Put plainly: differential scanning fluorimetry; 5 μM DnaJB4, 100 μM peptide, 5x Sypro Orange in JDP binding buffer; apparent melting temperature of DnaJB4; both purified.

As for “Hsp90β C-terminal 10-mer peptide, unlabeled, N-acetylated (from UniProt P08238 715-724)”, the binding entry in the assay with DnaJB4 (human) [1] and with DnaJB4 (human) [2] was “no binding (tested: 100 μM peptide)” each time.

As to “Hsp72 peptide with valine at P5 (from UniProt P0DMV8 632-641)”, in the assay with DnaJB4 (human) [1], the binding result is “binds”.

In the case of “Hsp90α C-terminal 10-mer peptide, unlabeled, N-acetylated (from UniProt P07900 723-732)”, the binding entry with DnaJB4 (human) [1] and in the assay with DnaJB4 (human) [2] was “no binding (tested: 100 μM peptide)” throughout.

For the substance “Hsp72 peptide with leucine at P5 (from UniProt P0DMV8 632-641)”, the binding result with DnaJB4 (human) [1] was “binds”.

For “Hsp72 peptide with phenylalanine at P5 (from UniProt P0DMV8 632-641)”, in the assay with DnaJB4 (human) [1], the binding entry is on record as “binds”.

As to “Hsp72 peptide with tyrosine at P5 (from UniProt P0DMV8 632-641)”, in the assay with DnaJB4 (human) [1], the binding entry is given as “binds”.
